Measured values reported in the supplement of paper PMC10126150.
Sequences with one replicate were seen in a single cluster, so their values are uncertain.

test system: ATP; assay: switch fluorescence ratio, 500 uM ATP over buffer (Cy3 cluster intensity, sum of 5 cycles each) (fold (ratio)); higher = stronger signal-on switching upon ATP binding; sequences stand for … in TCGTCGGCAGCGTCAGATGTGTATAAGAGACAGTTTTTTTTTTTTTTTTTTTTTTTTT…TC; conditions: aptamer strand: ATP DNA aptamer (quencher-CACCTGGGGGAGTATTGCGGAGGAAGG + anchor), 100 nM annealed; ATP concentration: 500 uM; one replicate
Outline: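 Cy3-labelled switching-strand clusters on a modified Illumina MiSeq flow-cell were annealed to 100 nM quencher-labelled ATP aptamer and imaged first in selection buffer, then after 15 min with 500 uM ATP at 22 °C. NaOH stripping and re-annealing separated each of five buffer/ATP cycles, and clusters outside 100-1000 RFU were excluded. The fluorescence ratio sums target-cycle Cy3 intensity over buffer-cycle Cy3 intensity per cluster and averages it per switch-domain sequence.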
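Further: ATP exposure 15 min at 22 °C before imaging.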

**Q.** GGAATAGTGA was tested. Which switch fluorescence ratio did it give?
**A.** 1.01

**Q.** GGAATCAAA was tested. Which switch fluorescence ratio did it give?
**A.** 1.01

**Q.** How did the switch fluorescence ratio turn out when GGAATCGCCT was run?
**A.** 1.02

**Q.** With GGAATGGCGA as the sequence, how does the switch fluorescence ratio read?
**A.** 0.995

**Q.** Which switch fluorescence ratio does the source give for GGAATTAGCC here?
**A.** 0.991

**Q.** Which switch fluorescence ratio does the source give for GGAATTAGGC here?
**A.** 0.96

**Q.** For GGAATTGTCA, which switch fluorescence ratio is on record?
**A.** 1.01

**Q.** For GGAATTGTGA, which switch fluorescence ratio is on record?
**A.** 0.982

**Q.** For GGACAAAGGA, which switch fluorescence ratio is on record?
**A.** 1.05

**Q.** Which switch fluorescence ratio does the source give for GGACACCCTT here?
**A.** 1.06

**Q.** How did the switch fluorescence ratio turn out when GGACACCTTA was run?
**A.** 0.996

**Q.** For GGACACTCAG, which switch fluorescence ratio is on record?
**A.** 1

**Q.** For GGACAGATGC, which switch fluorescence ratio is on record?
**A.** 1.11

**Q.** How did the switch fluorescence ratio turn out when GGACATGCGT was run?
**A.** 1.05

**Q.** Which switch fluorescence ratio does the source give for GGACATTAAT here?
**A.** 1.03

**Q.** GGACCAATGC was tested. Which switch fluorescence ratio did it give?
**A.** 3.72

**Q.** How did the switch fluorescence ratio turn out when GGACCAGTTA was run?
**A.** 1.03

**Q.** GGACCGTTGT was tested. Which switch fluorescence ratio did it give?
**A.** 0.993

**Q.** How did the switch fluorescence ratio turn out when GGACCTTTCG was run?
**A.** 1.03

**Q.** How did the switch fluorescence ratio turn out when GGACGCAAAT was run?
**A.** 2.6

**Q.** How did the switch fluorescence ratio turn out when GGACGCCCTA was run?
**A.** 1.06

**Q.** Which switch fluorescence ratio does the source give for GGACGCTCGC here?
**A.** 1.19

**Q.** How did the switch fluorescence ratio turn out when GGACGGTTAG was run?
**A.** 0.971

**Q.** How did the switch fluorescence ratio turn out when GGACGTAGGG was run?
**A.** 0.998

**Q.** GGACGTCGGC was tested. Which switch fluorescence ratio did it give?
**A.** 0.98

**Q.** With GGACGTTGGC as the sequence, how does the switch fluorescence ratio read?
**A.** 0.996

**Q.** GGACTAATTG was tested. Which switch fluorescence ratio did it give?
**A.** 1.05

**Q.** GGACTGCTAA was tested. Which switch fluorescence ratio did it give?
**A.** 1.08

**Q.** Which switch fluorescence ratio does the source give for GGACTGGGAT here?
**A.** 0.997

**Q.** GGAGAAACGC was tested. Which switch fluorescence ratio did it give?
**A.** 0.965

**Q.** GGAGAACATT was tested. Which switch fluorescence ratio did it give?
**A.** 0.993

**Q.** For GGAGAACGTG, which switch fluorescence ratio is on record?
**A.** 1.03

**Q.** How did the switch fluorescence ratio turn out when GGAGAAGGAG was run?
**A.** 1.05

**Q.** For GGAGACAGAA, which switch fluorescence ratio is on record?
**A.** 1

**Q.** GGAGAGAAAA was tested. Which switch fluorescence ratio did it give?
**A.** 1.04

**Q.** Which switch fluorescence ratio does the source give for GGAGATCTGA here?
**A.** 1.06

**Q.** How did the switch fluorescence ratio turn out when GGAGCAACTT was run?
**A.** 2.64

**Q.** How did the switch fluorescence ratio turn out when GGAGCAAGCA was run?
**A.** 2.91

**Q.** GGAGCATCGG was tested. Which switch fluorescence ratio did it give?
**A.** 1.06

**Q.** GGAGCCCATC was tested. Which switch fluorescence ratio did it give?
**A.** 1.05

**Q.** For GGAGCCTAAG, which switch fluorescence ratio is on record?
**A.** 0.969

**Q.** Which switch fluorescence ratio does the source give for GGAGCGAACC here?
**A.** 1.53

**Q.** For GGAGCGAGGT, which switch fluorescence ratio is on record?
**A.** 1.02

**Q.** How did the switch fluorescence ratio turn out when GGAGCTACTT was run?
**A.** 1.59

**Q.** GGAGCTGGCA was tested. Which switch fluorescence ratio did it give?
**A.** 0.919

**Q.** How did the switch fluorescence ratio turn out when GGAGGAACAA was run?
**A.** 0.952

**Q.** With GGAGGACGAC as the sequence, how does the switch fluorescence ratio read?
**A.** 1.01

**Q.** Which switch fluorescence ratio does the source give for GGAGGATATA here?
**A.** 1.05

**Q.** Which switch fluorescence ratio does the source give for GGAGGCCAAT here?
**A.** 0.976

**Q.** Which switch fluorescence ratio does the source give for GGAGGCTTTG here?
**A.** 1

**Q.** With GGAGGGACAC as the sequence, how does the switch fluorescence ratio read?
**A.** 1

**Q.** Which switch fluorescence ratio does the source give for GGAGGGCCA here?
**A.** 1.04

**Q.** With GGAGGGCCTT as the sequence, how does the switch fluorescence ratio read?
**A.** 1

**Q.** For GGAGGGCTAC, which switch fluorescence ratio is on record?
**A.** 1.04

**Q.** For GGAGGTGGGG, which switch fluorescence ratio is on record?
**A.** 1

**Q.** GGAGTAACGC was tested. Which switch fluorescence ratio did it give?
**A.** 1.08

**Q.** Which switch fluorescence ratio does the source give for GGAGTAAGT here?
**A.** 0.976

**Q.** For GGAGTAGGT, which switch fluorescence ratio is on record?
**A.** 0.999

**Q.** How did the switch fluorescence ratio turn out when GGAGTCGTTC was run?
**A.** 0.994

**Q.** For GGAGTGACTA, which switch fluorescence ratio is on record?
**A.** 1.02

**Q.** With GGAGTTAGCC as the sequence, how does the switch fluorescence ratio read?
**A.** 1.01

**Q.** GGAGTTCATT was tested. Which switch fluorescence ratio did it give?
**A.** 0.98

**Q.** GGAGTTCCTC was tested. Which switch fluorescence ratio did it give?
**A.** 1.01

**Q.** How did the switch fluorescence ratio turn out when GGAGTTGTGG was run?
**A.** 0.942

**Q.** With GGATACAAGA as the sequence, how does the switch fluorescence ratio read?
**A.** 1.02

**Q.** GGATACGCTA was tested. Which switch fluorescence ratio did it give?
**A.** 1.13

**Q.** For GGATACTTAA, which switch fluorescence ratio is on record?
**A.** 1.05

**Q.** For GGATAGACCT, which switch fluorescence ratio is on record?
**A.** 1.35

**Q.** With GGATAGTAAA as the sequence, how does the switch fluorescence ratio read?
**A.** 1.01

**Q.** With GGATATTGG as the sequence, how does the switch fluorescence ratio read?
**A.** 0.999

**Q.** Which switch fluorescence ratio does the source give for GGATCAAGTA here?
**A.** 1.02

**Q.** GGATCAATGG was tested. Which switch fluorescence ratio did it give?
**A.** 0.97

**Q.** GGATCACAGG was tested. Which switch fluorescence ratio did it give?
**A.** 1.08

**Q.** With GGATCGCAT as the sequence, how does the switch fluorescence ratio read?
**A.** 1.1

**Q.** With GGATCTCCTG as the sequence, how does the switch fluorescence ratio read?
**A.** 0.987

**Q.** Which switch fluorescence ratio does the source give for GGATCTTACG here?
**A.** 0.99

**Q.** Which switch fluorescence ratio does the source give for GGATGACGAT here?
**A.** 0.901

**Q.** With GGATGAGGTC as the sequence, how does the switch fluorescence ratio read?
**A.** 1

**Q.** How did the switch fluorescence ratio turn out when GGATGCGTAA was run?
**A.** 1.01

**Q.** For GGATGGCATA, which switch fluorescence ratio is on record?
**A.** 0.949

**Q.** How did the switch fluorescence ratio turn out when GGATGGGTAG was run?
**A.** 0.961

**Q.** With GGATGGTTTA as the sequence, how does the switch fluorescence ratio read?
**A.** 0.996

**Q.** Which switch fluorescence ratio does the source give for GGATGTAGGC here?
**A.** 1.05

**Q.** For GGATTACCCG, which switch fluorescence ratio is on record?
**A.** 1.03

**Q.** For GGATTATACG, which switch fluorescence ratio is on record?
**A.** 1.04
